Data published in the supplement of paper PMC3334620.
Whole data set: some 33,000 sequences, median “E-score (-0.5 to 0.5)” near -0.04, cut for the highest 2% near 0.36. Some of the results follow.

Molecular target: T1, Hmlalpha2 (UniProt P0CY09)
T1 sequence: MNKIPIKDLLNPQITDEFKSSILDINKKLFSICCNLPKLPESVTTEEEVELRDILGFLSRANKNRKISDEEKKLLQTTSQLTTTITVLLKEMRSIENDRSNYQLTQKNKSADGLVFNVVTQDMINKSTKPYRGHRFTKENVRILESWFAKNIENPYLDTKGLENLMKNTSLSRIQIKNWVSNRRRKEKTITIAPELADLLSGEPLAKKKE
Assay: PBM E-score (8-mer binding enrichment) (E-score (-0.5 to 0.5)); higher = stronger / more preferred TF binding; most listed sequences are background and not binding sites
Settings: protein concentration: 200 nM; construct: GST-full length
In short: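 Yeast transcription factors, full-length or as DNA-binding domains, were expressed with a GST tag using PURExpress in vitro transcription/translation. At about 100-200 nM they were applied to universal all-10-mer Agilent arrays, double-stranded by primer extension on fresh or once-stripped slides. Fluorescent anti-GST detected bound protein, and masliner normalised the scans. E-scores for ungapped eight-base words, pooled with reverse complements, came from the Universal PBM Analysis Suite.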

Sequence | PBM E-score
GTGCGAGA | -0.0911
CTCTCTCC | -0.24
TGATGAAA | 0.0453
GCAGGAAA | -0.0984
CTCATTAA | 0.106
TCATTGGA | 0.0975
CCCTATGA | -0.278
CCATTGCG | -0.262
ATAAGCAA | 0.112
TGAGTACA | 0.249
AAGGCACT | -0.203
TGAGACAA | -0.221
CCTTGAAA | -0.176
GAACCATA | -0.109
ATGCGGTG | -0.25
TAGATTCA | 0.0528
CCCGGACA | -0.0938
TAACGTAA | 0.331
CTTATGTA | 0.409
ATCCAGCC | -0.167
ACACGCGA | 0.378
CGGACAGA | -0.0354

Sequence | PBM E-score
CAACTAGC | 0.0853
GTGCGTCA | -0.0806
CTTTTAAC | 0.222
GGTACGCA | 0.111
GTGCCGTA | 0.0149
ACGCCTAG | -0.128
CGGGTCAC | -0.196
AAACGGTT | -0.0207
CGTATCAG | -0.105
AGAATCGA | -0.0964
CCGAACTA | -0.0215
CACGAGAC | -0.0265
ATTCAGAG | -0.0465
GTCGGTCA | -0.174
CCCGTTCG | -0.0811
ACCTCCAT | -0.192
AGACTGAA | 0.0304
AACTTGGT | 0.0922
AAAGTCCG | -0.118
AAAGAGTT | -0.102
GTTAGAAA | 0.0789
AAACAACC | 0.168

Sequence | PBM E-score
GTGAGAAA | -0.0612
CCGCCAAC | -0.263
CCACGGGG | -0.278
AGAGAGGA | -0.223
CTTAAGCA | -0.0819
ATTTCTGC | 0.0344
GCCGTACA | 0.0778
CCCGCATA | 0.0385
ACTCGTGG | -0.0958
CTCTCAGA | -0.256
CAGATAAC | 0.0509
AGCCAATG | -0.0511
ACCGTTAG | -0.0782
CCTATTAA | -0.0431
AATATGAC | 0.0994
ACCGGTAA | -0.00891
GTGTCGTA | 0.277
GAGGAGGA | -0.227
CCCTGCCG | -0.364
AATTATTG | 0.0733
AATTCCCA | 0.124
GTTAGAGA | -0.0671

Sequence | PBM E-score
AAACTAGA | 0.0433
CTCTACTC | -0.104
AGAACTTA | 0.149
ACCTAGGG | -0.16
CTTTCGAA | -0.197
ATAGGTAC | 0.0401
AGACCATG | -0.0012
AGTCATAG | -0.323
GATGGCTA | -0.127
TGAACACA | 0.347
TAAGAGAA | 0.155
ATAATACA | 0.38
CGAACAAC | 0.202
CGTCAGCC | 0.0153
GATGAACC | -0.0126
GATGGGCC | -0.28
ATAGTCCG | 0.00442
AACTGGGG | -0.291
CAGCCAAG | -0.125
ATGTAACG | 0.362
AAAGACAC | 0.231
ATACTACC | -0.0181

Sequence | PBM E-score
AACTTCAC | 0.121
CCCTTTCG | -0.011
AGTTCTAG | -0.249
AGGCTAGC | -0.209
AAAGTCAC | 0.0449
CCACATAG | -0.105
TCACTACA | 0.275
CCCCCTAA | -0.263
GAGTTCAC | 0.104
AAAAAGCA | 0.0395
TACCAATA | -0.172
AAAGGATG | 0.0139
ACCGTGCT | -0.0693
GGACCGCC | -0.235
CTCCTGAC | -0.208
TCGGATCA | 0.0619
CGCTCGAC | -0.206
AGTATTGG | -0.114
CAGGTATG | 0.0854
CTTAGCGC | 0.00158
CAGTAAGG | -0.0753
